Measurements reported in PubChem BioAssay AID2451 (National Center for Advancing Translational Sciences (NCATS), 2010).
Several values for one entry are separate records, joined by “and”; a condition that tells them apart may be missing. Equal entries are not always repeated. Hit rate of the full screen: of about 290,000 compounds, about 2,100 (0.72%) were called active. The inconclusive results got no clear call from the source; some entries with a clear call stand among them for comparison. The call rests on the fitted dose curve; in most records, active means well fitted inhibition curve with a large enough effect; inconclusive means small, poorly fitted or top-dose-only effect, or effect the other way; inactive means flat fitted curve, though single readings scatter. Potencies beside an inconclusive call are fits to weak or partial responses and may not hold up.

Molecular target: Fructose-bisphosphate aldolase (Giardia intestinalis (strain ATCC 50803 / WB clone C6)) (UniProt A8B2U2)
Assay: qHTS Assay for Inhibitors of Fructose-1,6-bisphosphate Aldolase from Giardia Lamblia; further: nearly all actives have a fitted effect of over 55% in size
Conditions: purified Giardia FBPA; activity, negative = inhibition: at 59.6 µM (top of the series) unless noted
Summary of the method: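 40 nM FBPA preincubated 10 min at RT with compound (up to 57.5 uM final), then substrate plus GAPDH/TPI/NAD/arsenate coupling and diaphorase/resazurin added. Fluorescence read after 20 min at RT, 525/598 nm.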
On the % scale 0 is the no-effect control and ±100 the full control effect; potency means the concentration at half of the fitted maximal effect; tags describe the fitted curve by direction and shape.

Sequence of UniProt A8B2U2 (A8B2U2 whole entry, looked up): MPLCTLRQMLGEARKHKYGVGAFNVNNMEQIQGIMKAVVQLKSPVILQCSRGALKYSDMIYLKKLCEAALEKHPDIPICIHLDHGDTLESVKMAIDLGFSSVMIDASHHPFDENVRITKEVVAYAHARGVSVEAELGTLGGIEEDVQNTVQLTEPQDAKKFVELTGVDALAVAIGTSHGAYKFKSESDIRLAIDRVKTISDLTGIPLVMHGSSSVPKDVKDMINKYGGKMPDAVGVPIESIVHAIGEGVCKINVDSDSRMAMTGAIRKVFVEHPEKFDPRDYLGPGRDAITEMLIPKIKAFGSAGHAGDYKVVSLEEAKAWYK

| Structure (SMILES) | Potency | activity, negative = inhibition |
| --- | --- | --- |
| Cc1cc(-c2csc(NC(=O)c3ccc(=O)n(C)n3)n2)c(C)n1CC1CCCO1 (configuration not stated) | inconclusive: 19.9 µM [inhibitor, partial curve] |  |
| O=C(O)COc1ccc(-c2nccc(-c3ccccn3)n2)cc1 | inconclusive: 8.89 µM [inhibitor, partial curve] |  |
| COC(=O)C1=C(C)N(CCc2c[nH]c3ccc(OC)cc23)C(=O)C1 | inconclusive: 44.6 µM [inhibitor, single point] |  |
| COC(=O)CCCC1=CC2=CC(=O)C(C)(OC(=O)c3cccs3)C(=O)C2=CN1CCc1c[nH]c2ccccc12 (configuration not stated) | active: 0.446 µM |  |
| O=C(NCCN1CCc2ccccc2C1)Nc1ccc([N+](=O)[O-])cc1 | inconclusive: 19.9 µM [inhibitor, single point] |  |
| O=C(NN=C(Cc1ccccc1)Cc1ccccc1)c1ccccc1O | inconclusive: 7.92 µM [inhibitor, full curve, poor fit] |  |
| COc1ccc(-c2cc(-c3ccco3)[nH]c(=O)c2C#N)cc1 | active: 19.9 µM |  |
| COc1cc(C(=O)NC(=S)Nc2ccc([N+](=O)[O-])cc2C)cc(OC)c1OC | inconclusive: 15.8 µM [inhibitor, single point] |  |
| CCn1c(COc2c(C)cccc2C)nnc1SCC(=O)N1CCN(c2ccccc2)CC1 |  | inactive: 11.4% |
| CCCCCCCc1nc2c(=O)n(C)c3ccccc3c2o1 |  | inactive: 0.784% |
| Cc1ccccc1N1CCN(CCCN2C(=O)CC(=C(c3ccccc3)c3ccccc3)C2=O)CC1 | inconclusive: 14.1 µM [inhibitor, partial curve] |  |
| CCc1cc(-c2onc(C)c2-c2cscn2)c(O)cc1OC | inconclusive: 15.8 µM [inhibitor, single point] |  |
| CSc1nnc(-c2ccc(Br)s2)n1C |  | inactive: 16.7% |
| COc1cc(NC(=O)CN2CCN(Cc3ccc4c(c3)OCO4)CC2)cc(OC)c1 | inconclusive: 19.9 µM [inhibitor, partial curve] |  |
| COc1ccc(-n2c(-c3cnccn3)n[nH]c2=S)cc1 | inconclusive: 19.9 µM [inhibitor, partial curve] |  |
| COc1ccccc1CNC(=O)c1csc(Cc2ccc(Cl)cc2)n1 |  | inactive: 0.674% |
| Cc1cc(C)n2nc(C(=O)Nc3nnc(C4CC4)s3)nc2n1 | inconclusive: 7.06 µM [inhibitor, partial curve] |  |
| CCN=C1NN=C(c2cc(C)n(CCc3ccccc3)c2C)CS1 |  | inactive: -27.1% |
| CC(O)CNCCOc1ccccc1-c1ccccc1 (configuration not stated) | inconclusive: 9.98 µM [inhibitor, partial curve] |  |
| O=C(O)c1cccc(Nc2c3ccccc3nc3ccccc23)c1 | inconclusive: 39.8 µM [inhibitor, single point] |  |
| O=C(c1ccc([N+](=O)[O-])cc1)N1CCN(Cc2ccccc2[N+](=O)[O-])CC1 | inconclusive: 22.3 µM [inhibitor, partial curve] |  |
| CC1=N/C(=C/c2ccco2)C(=O)O1 | inconclusive: 35.4 µM [inhibitor, single point] |  |
| Cc1c(C2Nc3ccccc3NC3=C2C(=O)CC(C)(C)C3)cnn1C (configuration not stated) | inconclusive: 28.1 µM [inhibitor, single point] |  |
| COC(=O)c1cc(-c2ccc(C)cc2)n[nH]1 |  | inactive: -0.854% |

| Structure (SMILES) | Potency | activity, negative = inhibition |
| --- | --- | --- |
| O=C(O)CCCCCN1C(=O)C(O)=C(C(=O)/C=C/c2ccccc2)C1c1cccc([N+](=O)[O-])c1 (configuration not stated) | inconclusive: 22.3 µM [activator, partial curve, poor fit] |  |
| O=C(Nc1ccccc1)[C@@H]1[C@@H]2C(=O)N(c3ccc(F)cc3)C(=O)[C@@H]2[C@H]2C=CC=NN21 | inconclusive: 19.9 µM [inhibitor, partial curve] |  |
| O=C(Nc1ccccc1)N1CC=C(c2ccc(F)cc2)CC1 | inconclusive: 44.6 µM [inhibitor, single point] |  |
| CC1=CC(C#N)(C#N)C(C#N)(C#N)C(c2ccccc2)N1 (configuration not stated) | inconclusive: 15.8 µM [inhibitor, single point] |  |
| CN1CCN(C(=O)c2sc(=S)n(-c3ccccc3)c2N)CC1 | active: 5.61 µM |  |
| CCC(=O)c1ccc(OCCn2cnc3ccccc32)cc1 |  | inactive: -7.51% |
| O=C(Nc1ccccn1)C1CCCN(c2ncnc3c2nc2n3CCCCC2)C1 (configuration not stated) |  | inactive: 5.14% |
| CCOC(=O)c1ccc(NC(=O)Nc2ncc(Cl)cc2Cl)cc1 |  | inactive: -15.5% |
| CC(=O)c1cc(C#N)c(SCc2ccncc2)nc1C | inconclusive: 35.4 µM [inhibitor, single point] |  |
| CC1(C)Cc2nc3oc4c(=S)nc[nH]c4c3cc2CO1 | active: 11.2 µM |  |
| CC(=O)NC1=C(N(C)C2CCS(=O)(=O)C2)C(=O)c2ccccc2C1=O (configuration not stated) | active: 0.126 µM |  |
| Cc1ccc2[nH]c(C)c(CCNCc3cccnc3)c2c1 | inconclusive: 28.2 µM [inhibitor, partial curve] |  |
| C/C(CC(=O)Nc1ccc(Cl)cc1C(F)(F)F)=N\NC(N)=S | active: 19.9 µM |  |
| NS(=O)(=O)c1ccc(-c2ccc(/C=C3\SC(=O)NC3=O)o2)cc1 | inconclusive: 20 µM [inhibitor, single point] |  |
| Cc1cccc(CN2CCSCC2)c1 | inconclusive: 20 µM [inhibitor, partial curve] |  |
| O=C(O)CCCn1cc(NC(=O)c2cc(F)c(F)cc2Cl)cn1 | inconclusive: 15.8 µM [inhibitor, partial curve] |  |
| CC(O)CNCCCOc1ccccc1OCc1ccccc1 (configuration not stated) | inconclusive: 19.9 µM [inhibitor, partial curve] |  |
| CCOc1cc(/C=C2\C(=N)N3N=C(N4CCCCC4)SC3=NC2=O)ccc1OC(=O)c1ccco1 | inconclusive: 25.1 µM [inhibitor, partial curve, poor fit] |  |
| CCCCC(=O)N/N=C/c1c(O)n(-c2cccc3ccccc23)c(=O)[nH]c1=O | active: 15.8 µM |  |
| CCNC(=S)NNC(=O)c1ccncc1 | inconclusive: 7.92 µM [inhibitor, partial curve] |  |
| Cc1cc(C(=O)CN2C(=O)C(=O)N(C3CCCC3)C2=O)c(C)n1-c1ccc(F)cc1 | inconclusive: 44.6 µM [inhibitor, single point] |  |
| COc1ccccc1N(Cc1ccccc1)S(=O)(=O)c1cccc(C(=O)O)c1 | inconclusive: 15.8 µM [activator, single point] |  |
| COc1ccc(N2CCN(C(c3ccccc3OC)c3nnnn3Cc3ccco3)CC2)cc1 (configuration not stated) |  | inactive: -2.02% |
| CCOc1ccc2nc3sc(C(=O)N4CCOCC4)c(N)c3cc2c1 | inconclusive: 7.92 µM [inhibitor, partial curve] |  |

| Structure (SMILES) | Potency | activity, negative = inhibition |
| --- | --- | --- |
| Cc1cc(NS(C)(=O)=O)c(=O)n(Cc2cccc(F)c2)c1 | inconclusive: 17.8 µM [inhibitor, partial curve] |  |
| OCC1(Cc2ccccc2)CCN(Cc2ccc(-c3ccco3)cc2)CC1 |  | inactive: -0.218% |
| CC(=O)Nc1cccc2ncccc12 |  | inactive: 0.707% |
| COc1cc2ncnc(Nc3cccc(Br)c3)c2cc1OC | inconclusive: 25.1 µM [inhibitor, partial curve] |  |
| CCN(CC)CCN(C(=O)c1cc(Cl)sc1Cl)c1nc2cc3c(cc2s1)OCO3 | inconclusive: 22.4 µM [inhibitor, single point] |  |
| COC(=O)CCC(=O)OC1(C)C(=O)C2=CN(C3CC3)C(c3ccc(OC)cc3)=CC2=C(Br)C1=O (configuration not stated) | inconclusive: 3.97 µM [inhibitor, single point] |  |
| COc1ccc(OC)c(CN2CCC(C(=O)N(C)CCc3ccc(OC)c(OC)c3)CC2)c1 | inconclusive: 11.2 µM [inhibitor, partial curve] |  |
| COc1cccc(CCNC(=O)CCc2nnc(Cc3cc(OC)ccc3OC)o2)c1 |  | inactive: 4.72% |
| CCOC(=O)C1CCN(Cc2ccc(OCc3ccccc3)cc2)CC1 | inconclusive: 20 µM [inhibitor, partial curve] |  |
| Cc1cccc(/C=C/C(=O)c2cc(Br)ccc(=O)c2O)c1 | inconclusive: 35.4 µM [activator, single point] |  |
| CCc1ccc(N2C(=O)CC(N3CCN(Cc4ccc5c(c4)OCO5)CC3)C2=O)cc1 (configuration not stated) |  | inactive: 0.81% |
| O=C1c2ccccc2-c2onc3ccc(Oc4ccccc4)c1c23 | inconclusive: 2.51 µM [inhibitor, partial curve] |  |
| COc1ccc(N2C(=S)NC3N2C(=S)NC3(C)c2ccccc2)cc1 (configuration not stated) | inconclusive: 22.3 µM [inhibitor, single point] |  |
| O=C1/C(=C/c2cccnc2)SC(=S)N1CCc1ccccc1 |  | inactive: -0.0758% |
| COc1ccc(-c2c(C#N)c(N)nc3c2CCC3)cc1 |  | inactive: 0.793% |
| CCOC(=S)SCC(=O)Nc1ncc(C)s1 | inconclusive: 15.8 µM [inhibitor, single point] |  |
| COc1ccc(-c2cc(C(=O)NC(C)C)no2)cc1 |  | inactive: -0.509% |
| Cc1cc(NC(=O)CSc2ccc3nnc(-c4cccs4)n3n2)no1 | inconclusive: 31.5 µM [activator, single point] |  |
| Cc1nnc(N/N=C/c2ccccn2)[nH]c1=O | active: 1.99 µM |  |
| COc1ccc(/C=C/c2nnc(NC(=O)COc3ccccc3)s2)cc1 |  | inactive: 3.68% |
| c1ccc(-c2ccc(C(c3ccccc3)n3ccnc3)cc2)cc1 (configuration not stated) | inconclusive: 25.1 µM [activator, single point] |  |
| Oc1c(Cl)cc(Cl)c2cccnc12 | inconclusive: 3.15 µM [inhibitor, partial curve, poor fit] and inconclusive: 19.9 µM [inhibitor, single point] |  |
| CCN(CC)S(=O)(=O)c1cccc(C(=O)N/N=C/c2ccccn2)c1 | active: 17.7 µM |  |
| O=C(NN=C1CCN(Cc2ccccc2)CC1)c1cc2ccccc2cc1O | inconclusive: 3.54 µM [inhibitor, full curve] |  |
